Earlier results on 1 compound are cited in patent US10172829B2 (priority 2014, dated 2019).

Each structure is given as a SMILES string.

The conditions of this data set: in vivo; cited from earlier work.

For `O=c1c2ccccc2[se]n1-c1ccccc1` [Ebselen, 2-phenyl-1,2-benzoselenazol-3-one], the “outcome of acute ischemic stroke” value is recorded as “improved the outcome”.
